# Assay results published in PubChem BioAssay AID588342 (National Center for Advancing Translational Sciences (NCATS), 2011).
# Out of some 360,000 compounds screened, about 25,000 (6.9%) were called active. Inconclusive means that the source gave no clear call. Such entries were picked first, then a sample of the others. Calls come from the whole dose curve; as a rule, active = well fitted inhibition curve with a large enough effect; inconclusive = small, poorly fitted or top-dose-only effect; inactive = flat fitted curve, though single readings scatter. A potency beside an inconclusive call is a rough fit, not a confirmed value.
# Target: Luciferin 4-monooxygenase (Photinus pyralis) (UniProt P08659)
# Chain of UniProt P08659 (P08659 whole entry, looked up): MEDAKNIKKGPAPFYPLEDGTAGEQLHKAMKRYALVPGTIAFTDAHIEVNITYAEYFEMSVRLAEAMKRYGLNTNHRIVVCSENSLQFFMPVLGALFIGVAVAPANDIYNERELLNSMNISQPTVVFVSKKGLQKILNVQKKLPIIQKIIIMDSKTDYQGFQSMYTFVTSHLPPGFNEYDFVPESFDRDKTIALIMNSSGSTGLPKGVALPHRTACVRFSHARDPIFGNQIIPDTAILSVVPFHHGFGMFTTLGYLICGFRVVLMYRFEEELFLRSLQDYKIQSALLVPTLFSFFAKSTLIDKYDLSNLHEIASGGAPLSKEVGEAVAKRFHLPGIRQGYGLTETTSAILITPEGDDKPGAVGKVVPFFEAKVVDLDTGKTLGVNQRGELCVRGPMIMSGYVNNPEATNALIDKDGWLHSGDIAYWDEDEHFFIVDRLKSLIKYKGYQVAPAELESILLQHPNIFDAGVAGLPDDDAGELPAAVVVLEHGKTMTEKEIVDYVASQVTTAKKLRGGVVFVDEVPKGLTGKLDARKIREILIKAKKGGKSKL
# Assay: qHTS profiling assay for firefly luciferase inhibitor/activator using purifed enzyme and Km concentrations of substrates (counterscreen for miR-21 project); note: nearly all actives have a fitted effect of over 55% in size;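 for activity change, negative = inhibition: plate controls were vehicle for no effect and reference inhibitor for full effect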
# Settings: purified FLuc, luminescence inhibition; activity change, negative = inhibition: at 57.5 µM (top of the series)
# How it was run: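 Purified P. pyralis luciferase, 10 nM final, with Km-level 10 uM D-luciferin and 10 uM ATP in 50 mM Tris acetate pH 7.5, 10 mM Mg acetate, 0.01% Tween-20, 0.05% BSA; 6-point qHTS titration about 60 µM downward; luminescence read.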
# Potency is the fitted concentration of half-maximal effect; tags give direction and shape of the fitted curve.
Structure (SMILES),Potency,"activity change, negative = inhibition"
O=C(Nc1ccncc1)Nc1cccc(F)c1,"inconclusive: 23.9 µM [inhibitor, partial curve]",
CCn1c(C(=O)NCc2ccccc2C)cc2oc3ccccc3c21,,inactive: -11.5%
C=CCc1ccc(OCCN2CCc3ccccc3C2)c(OC)c1,"inconclusive: 26.9 µM [inhibitor, partial curve]",
CCCc1cc(=O)oc2c3c(ccc12)OCN(Cc1ccc(OC)cc1)C3,,inactive: 1.91%
O=C(O)c1cccc(-n2sc3ccccc3c2=O)c1,"inconclusive: 10 µM [inhibitor, partial curve, poor fit]",
CCN(c1ccccc1)S(=O)(=O)c1cccc(C(=O)Nc2ccc(C)cn2)c1,,inactive: 0.331%
Cc1nc(-c2cccc(NC(=O)Nc3ccc([N+](=O)[O-])cc3)c2)no1,"inconclusive: 30.1 µM [inhibitor, partial curve, poor fit]",
Cc1ccccc1SCC(=O)NNC(=O)c1ccncc1,,inactive: 5.4%
Clc1ccc(-c2nnc(-c3ccc(Br)o3)o2)c(Cl)c1,active: 3.01 µM,
COc1ccccc1OCCC(=O)OCC(=O)Nc1cc(S(=O)(=O)N(C)C)ccc1Cl,"inconclusive: 37.9 µM [inhibitor, partial curve, poor fit]",
O=c1cc(N2CCc3ccccc32)[nH]c(=O)n1Cc1ccc(F)cc1,"inconclusive: 16.9 µM [inhibitor, partial curve, poor fit]",
O=C(O)CCCNC(=O)CC1S/C(=N/N=C/c2ccccc2O)NC1=O (stereo not given),"inconclusive: 37.9 µM [inhibitor, partial curve, poor fit]",
CCCCC[C@]12Cc3cc(OC)c(OC)cc3C(O1)c1c(cc(C)n(-c3ccccc3)c1=O)O2,,inactive: 0.187% [at 11.5 µM]
O=C(O)COc1ccc(-c2nccc(-c3cccs3)n2)cc1,active: 1.51 µM,
O=C(CCCSc1nc2ccccc2s1)NCc1ccco1,"inconclusive: 26.9 µM [inhibitor, single point]",
c1coc(-c2nc3ccccc3nc2-c2ccco2)c1,"inconclusive: 23.9 µM [inhibitor, single point]",
COC(=O)c1ccc2c(=O)n(CCCCCC(=O)N3CCN(c4ccccc4)CC3)c(=O)[nH]c2c1,,inactive: -11.9%
O=S(=O)(c1ccccc1)c1ncc(C(F)(F)F)cc1O,"inconclusive: 30.1 µM [inhibitor, partial curve, poor fit]",
CC(Sc1nnc(NC2CCCCC2)s1)C(=O)Nc1ccc2c(c1)C(=O)c1ccccc1C2=O (stereo not given),"inconclusive: 37.9 µM [inhibitor, partial curve, poor fit]",
COc1cc(CNc2ccc(N3CCOCC3)cc2)ccc1OCC(=O)NC(C)(C)C,"inconclusive: 15.1 µM [inhibitor, partial curve, poor fit]",
O=C(Nc1ccsn1)c1ccc(Cl)cc1Cl,"inconclusive: 3.01 µM [inhibitor, full curve]",
CN(C(=O)COC(=O)CNC(=O)c1sc2ccccc2c1Cl)c1ccccc1,"inconclusive: 30.1 µM [inhibitor, single point]",
COc1cccc(-c2csc(N3CCN(C(=O)Nc4ccccc4OC)CC3)n2)c1,"inconclusive: 37.9 µM [inhibitor, partial curve, poor fit]",
CCOC(=O)c1[nH]c(COC(=O)C2CC(=O)N(Cc3ccccc3)C2)c(C(=O)OCC)c1C (stereo not given),,inactive: 0.132%

Structure (SMILES),Potency,"activity change, negative = inhibition"
CCNC(=O)N1CCCC(C(=O)c2ccc(-c3ccccc3)cc2)C1 (stereo not given),"inconclusive: 21.3 µM [inhibitor, partial curve]",
COC(=O)/C(=C\c1ccc(O)cc1)c1nc2ccccc2[nH]1,"inconclusive: 26.9 µM [inhibitor, partial curve]",
CC(=O)c1ccc(NC(=O)Cc2cccs2)cc1,"inconclusive: 23.9 µM [inhibitor, single point]",
O=C(Nc1cc(NC(=O)c2ccccc2F)ccc1Cl)c1ccccc1,active: 15.1 µM,
Cc1ccc(CCNC(=O)C(NS(=O)(=O)c2ccc3c(c2)oc(=O)n3C)C(C)C)cc1 (stereo not given),,inactive: 0.514%
COc1ccc(Cc2noc(-c3ccc(C)cc3)n2)cc1,"inconclusive: 37.9 µM [inhibitor, single point]",
CCn1c(SCC(=O)Nc2cc(Cl)ccc2OC)nnc1C1CC1,,inactive: 2.45%
Cc1nn(Cc2ccccc2)c(C)c1C(=O)N1CCN(S(=O)(=O)/C=C/c2ccccc2)CC1,,inactive: 3.54%
COc1ccc(OC)c(NC(=O)Nc2cc(NC(=O)Nc3cc(OC)ccc3OC)c(C)nc2C)c1,,inactive: 6.18%
Cc1cccc(Nc2ncnc3nc[nH]c23)c1,"inconclusive: 21.3 µM [inhibitor, single point]",
Cc1ccc(C(=O)CCS(=O)(=O)c2ccc(Cl)cc2)cc1,"inconclusive: 37.9 µM [inhibitor, single point]",
Cc1cc(C)n2cc(CSc3nc4cc(Cl)ccc4o3)nc2n1,,inactive: -1.48%
CCCc1nc2c(=O)n(C)c(=O)nc-2n(C)n1,,inactive: 1.64%
O=C(c1ccco1)N1CCN(C(=O)c2ccc(COc3ccc4c(c3)CCC4)o2)CC1,"inconclusive: 21.3 µM [inhibitor, partial curve]",
Cc1cccc(N=Nc2cn[nH]c2-c2ccco2)c1,"inconclusive: 15.1 µM [inhibitor, partial curve]",
COc1cc2ccccc2cc1C(=O)NC1CCCCC1,active: 12 µM,
COc1ccc(NC(=O)CN(Cc2ccccc2)Cc2ccccc2)cc1S(N)(=O)=O,,inactive: -1.19%
Cc1cc(Cl)ccc1OCCCC(=O)OCC(N)=O,active: 26.9 µM,
Cc1cc(C)c(C(=O)/C=C/c2cccs2)c(=O)[nH]1,,inactive: -1.09%
COC(=O)c1cc(-c2cccs2)nc2ccccc12,"inconclusive: 37.9 µM [inhibitor, partial curve, poor fit]",
COc1ccc(C(=O)NC(C(=O)N2CCc3ccccc32)C(C)C)cc1 (stereo not given),,inactive: 1.42%
CCOC(=O)C1(C)C=C(Nc2cccc(C(=O)O)c2)C(=O)N1c1cccc(C(=O)O)c1 (stereo not given),"inconclusive: 26.9 µM [inhibitor, single point]",
COc1ccc(-c2noc(-c3ccc(N4CCN(c5ccccc5)CC4)c([N+](=O)[O-])c3)n2)cc1OC,"inconclusive: 12 µM [inhibitor, partial curve]",
Cc1nn(C)cc1/C=N\NC(=O)c1ccc(Cn2cc(Cl)cn2)cc1,"inconclusive: 19 µM [inhibitor, single point]",

Structure (SMILES),Potency,"activity change, negative = inhibition"
Cc1ccc2oc(-c3cccc(NC(=O)c4cc(-n5cnnc5)ccc4Cl)c3)nc2c1,"inconclusive: 0.601 µM [inhibitor, full curve]",
Clc1ccc(/C=N/Nc2ncnc3ccccc23)cc1Cl,active: 8.49 µM,
O=C(/C=C/c1ccc(O)c(O)c1)c1ccc(S(=O)(=O)N2CCCCCC2)cc1,"inconclusive: 37.9 µM [inhibitor, single point]",
Cc1ccc(N2C(=O)C3C(C2=O)N2CCCN2C3c2ccccc2)cc1C (stereo not given),,inactive: -3.31%
Cc1oc2cc3oc(=O)c(CC(=O)NCC(=O)N[C@@H](C(=O)O)c4ccccc4)c(C)c3cc2c1C,"inconclusive: 30.1 µM [inhibitor, partial curve, poor fit]",
CCOc1ccc(NC(=O)CN(C)S(=O)(=O)c2cccc3cccnc23)cc1,"inconclusive: 37.9 µM [inhibitor, partial curve, poor fit]",
COc1ccccc1C(=O)Nc1ccc(N2CCN(S(C)(=O)=O)CC2)cc1,"inconclusive: 12 µM [inhibitor, partial curve]",
COc1ccc(C(=O)N2CCC(C(=O)Nc3ccc4c(c3)OCCO4)CC2)cc1,"inconclusive: 26.9 µM [inhibitor, single point]",
O=C(Nc1ccc(F)c(Cl)c1)Nc1ccc(Cl)cn1,"inconclusive: 0.0135 µM [inhibitor, partial curve, poor fit]",
Cc1nc(C)c(-c2ccc(SCC(=O)Nc3cccc(Cl)c3)nn2)s1,"inconclusive: 2.39 µM [inhibitor, full curve, poor fit]",
O=C(O)CSc1nc(-c2cccs2)cc(C(F)(F)F)n1,,inactive: -13.5%
COc1cccc(-c2nc(-c3ccccc3)no2)c1,"inconclusive: 0.478 µM [inhibitor, partial curve, poor fit]",
Cc1cc(NC(=O)c2cccc(Cl)c2)ccc1-c1cc2ccccc2oc1=O,"inconclusive: 8.49 µM [inhibitor, partial curve, poor fit]",
O=[N+]([O-])c1ccc(C2CN=C(Nc3ccccc3)S2)cc1 (stereo not given),"inconclusive: 33.8 µM [inhibitor, partial curve, poor fit]",
C=CCc1cc(Cl)ccc1OC(=O)Nc1cccc(Cl)c1,"inconclusive: 33.8 µM [inhibitor, single point]",
Cc1noc(-c2ccc(N3CCCCC3)c([N+](=O)[O-])c2)n1,,inactive: 5.23%
Cn1c2ccccc2c(=O)c2ccc(C#Cc3ccccn3)cc21,,inactive: -17.4%
Cn1c(C(=O)c2ccccc2)nc2ccccc21,"inconclusive: 26.9 µM [inhibitor, single point]",
Cc1ccc(-c2nc3cccnc3s2)cc1NC(=O)C1c2ccccc2Oc2ccccc21,"inconclusive: 37.9 µM [inhibitor, single point]",
CCOC(=O)c1ccc2nc(NC(NC(C)=O)(C(=O)OC)C(F)(F)F)sc2c1 (stereo not given),,inactive: 3.1%
CC1=NN(C(N)=S)C(=O)C1N=Nc1cc(Cl)ccc1Cl (stereo not given),"inconclusive: 21.3 µM [inhibitor, partial curve, poor fit]",
S=c1nc(-c2ccccc2Cl)[nH][nH]1,"inconclusive: 0.0095 µM [inhibitor, partial curve, poor fit]",
